This passage reports cell count results from the supplement of paper PMC4604168 (melanoma cell lines).

Some of the results follow. Repeats are few or missing, and single values can be far off.
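Also: cell number obtained by counting DAPI-stained nuclei in high-throughput microscope images with image analysis software, screen run in 1,536-well plates.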

This assay deals with A375. The assay is described as follows: cell count relative to DMSO control; melanoma cells; higher = more viable cells. The settings on record: library dose: low library concentration; 72 h.
The compound `Nc1ncn([C@H]2C[C@H](O)[C@@H](CO)O2)c(=O)n1` [decitabine] + CC1(C)NC(=O)N(c2ccc([N+](=O)[O-])c(C(F)(F)F)c2)C1=O [nilutamide] (first compound 0.1 µM, partner dose 1 µM) displayed a cell count of 104%.

In the case of `Nc1ncn([C@H]2C[C@H](O)[C@@H](CO)O2)c(=O)n1` [decitabine] + Cc1cc(N2CCOCC2)cc2[nH]c(-c3c(NC[C@@H](O)c4cccc(Cl)c4)cc[nH]c3=O)nc12 [BMS536924] (first compound 0.1 µM, partner dose 0.2 µM), the cell count is 82.4%.

The compound `Nc1nc(F)nc2c1ncn2[C@@H]1O[C@H](CO)[C@@H](O)[C@@H]1O` [fludarabine] + CN(C)S(=O)(=O)c1ccc2c(c1)/C(=C/c1cc3c([nH]1)CCCC3)C(=O)N2 [SU6656] (first compound 0.2 µM, partner dose 0.4 µM) came in with a cell count of 10.7%.

Compound `CC(=O)c1c(C)c2cnc(Nc3ccc(N4CCNCC4)cn3)nc2n(C2CCCC2)c1=O` [palbociclib] + CN(NC(=O)CC(=O)NN(C)C(=S)c1ccccc1)C(=S)c1ccccc1 [STA4783] (first compound 0.04 µM, partner dose 0.006 µM) showed a cell count of 13.7%.

`CC(=O)O[C@@]12CO[C@@H]1C[C@H](O)[C@@]1(C)C(=O)[C@H](O)C3=C(C)[C@@H](OC(=O)[C@H](O)[C@@H](NC(=O)OC(C)(C)C)c4ccccc4)C[C@@](O)([C@@H](OC(=O)c4ccccc4)[C@H]21)C3(C)C` [Docetaxel] + CS(=O)(=O)CCNCc1ccc(-c2ccc3ncnc(Nc4ccc(OCc5cccc(F)c5)c(Cl)c4)c3c2)o1 [lapatinib] (first compound 0.0001 µM, partner dose 0.8 µM) had a cell count of 28.5%.

The compound `Nc1nc(F)nc2c1ncn2[C@@H]1O[C@H](CO)[C@@H](O)[C@@H]1O` [fludarabine] + CN(NC(=O)CC(=O)NN(C)C(=S)c1ccccc1)C(=S)c1ccccc1 [STA4783] (first compound 0.2 µM, partner dose 0.006 µM) showed a cell count of 9.37%.

The compound `Nc1nc(F)nc2c1ncn2[C@@H]1O[C@H](CO)[C@@H](O)[C@@H]1O` [fludarabine] + NCC(=O)Nc1ccc(-n2nc(C(F)(F)F)cc2-c2ccc3c(ccc4ccccc43)c2)cc1 [OSU03012] (first compound 0.2 µM, partner dose 1 µM) displayed a cell count of 7.27%.

On to `Nc1ccn([C@@H]2O[C@H](CO)[C@@H](O)C2(F)F)c(=O)n1` [gemcitabine] + COc1cc(Nc2ncc(F)c(Nc3ccc4c(n3)NC(=O)C(C)(C)O4)n2)cc(OC)c1OC [Tamatinib] (first compound 0.0004 µM, partner dose 0.4 µM), for which the cell count worked out at 74.9%.

`Nc1ncn([C@H]2C[C@H](O)[C@@H](CO)O2)c(=O)n1` [decitabine] + COc1cc(Nc2ncc(F)c(Nc3ccc4c(n3)NC(=O)C(C)(C)O4)n2)cc(OC)c1OC [Tamatinib] (first compound 0.1 µM, partner dose 0.4 µM) yielded a cell count of 78.1%.

As to `Nc1ccn([C@@H]2O[C@H](CO)[C@@H](O)C2(F)F)c(=O)n1` [gemcitabine] + Cc1ccc(NC(=O)c2cccc(N(C)C)c2)cc1NC(=O)c1ccc(O)cc1 [ZM336372] (first compound 0.0004 µM, partner dose 2 µM), the cell count was determined as 93.8%.

Compound `Nc1ncn([C@H]2C[C@H](O)[C@@H](CO)O2)c(=O)n1` [decitabine] + NCC(=O)Nc1ccc(-n2nc(C(F)(F)F)cc2-c2ccc3c(ccc4ccccc43)c2)cc1 [OSU03012] (first compound 0.1 µM, partner dose 1 µM) displayed a cell count of 23.3%.
